# The source gives no read counts; variants with many changes may rest on few reads.
# B1: OR4K15 (parent)
# chain: GUUAACGGUCAUAGGCCAUGGAAACUAGGAGCACCAUUUCGCUGCCAGUGAAGAAAUGAACAAAGAAAAUCUGGGCCAGGCAGGCAUCAAAAGAAAUAGUCUUGCGCUCAACCAGAAAGUCUGUAAUCAUUUUAAGGGUA
# Variants of: B1
# Test: self-cleavage, relative activity (ratio to wild type); higher = more cleavage; in vitro, sequencing; the parent is a self-cleaving ribozyme
row,Variant,self-cleavage
1,A18G A110G U124C,0.11
2,A18G U43A A69G U108C,0.05
3,U26C A90U A95G A117G,1.78
4,U19C A95U G99A A111U U120A,0.01
5,A22G A64U A69G A98U,1.37
6,A52G A67G U72C,0.44
7,U39C U70C U87C U132A,0.86
8,U38C A117G A126G,1.47
9,A22U A96G A116G,0.16
10,U70C A95G A118G U124C U127C,0.17
11,U19C A22G A60G U132C,0.41
12,G7U A91G A98G U103C,0.09
13,A111G U122C U124A,0
14,U9C A68G A92G U100A G106A U122C,0.01
15,A62G A86C U100C,2.28
16,G41A A62G A89G,1.71
17,U12C G48A A86G,0.95
18,U37G A59G A96G A111G,0.01
19,U70C U102C U130C,1.59
20,A62G A110U U127C,0.86
21,U3C A30G G106U U139C,0.11
22,A23G A67G A82G,0.44
23,A22G U38C A51G U100C,1.47
24,C16U A55G U87C U103A,0.57

row,Variant,self-cleavage
1,A27U U37C A95G A116G A118U,0.15
2,A27G A60G A89G U102C A118G A134U,1.25
3,A30G C40A A117U,1.04
4,G41A A78U A116G,0.08
5,G73A G74U A78U U87C A94G,0.16
6,C61U A82U A92G U100C,0.29
7,G21A A82U A96G,0.38
8,U37C A52U A67G A82G A91G C101U U130C,0.01
9,U9C A56G A82G,0.36
10,U26C G93A A117G U132C,2.17
11,U19A A59U A67G A117C,0.37
12,U39C U43C A63G A95G U122C,1.56
13,U43C A78U U97A,0.4
14,G21A A23U A27U A33G G75C U108A U122C,0.01
15,U37C U108C A134U,0.02
16,U2C A27G U39C U120C,0
17,A47G A51U A114G U132C,0.12
18,A68G A78G A95G,0.4
19,A11U U103C A135U,0.9
20,G21A A51U A86U A95G U132C,2.23
21,A33G A51G A69G A78G,0.29
22,U3C A24U A60G A62U U87C,0.73
23,U12C A27U A33G,1.33
24,U19C U43C U131C,1.2

row,Variant,self-cleavage
1,A24C U38C A62G U108C,0.02
2,A94G U108A A118G,0
3,A22G A60G A111G A134G A135G,0.04
4,A18U A95G U139G,1.91
5,A66G A95G A96G,0.58
6,A23G A78C G106A C113U A116G G137A,0
7,C35U A82U A89G A92U A110G,0.01
8,U37C A55U A116G,0.45
9,U37C A86G A91G,0.13
10,U9C A47U C88G A140G,1.11
11,U3C U19A A62C G136U,1.3
12,A18U A82G U102A U120C,0.05
13,U43C A86G A98U A134G,2.12
14,A33G U39C A55G A56G A92G A110U,0.33
15,U37C A68G A86U,1.35
16,A24G U39A U70A A82U A92G,0.14
17,A54G U102C A116U A140G,0.62
18,U2A A52U A82G A95G U132C U139G,1.37
19,G7A G93A U103C U122A U131C,0.94
20,A78G A116G U132C,0.16
21,A4G A33C A126G,0.98
22,A24U A82G U102C U124C,0.6
23,A24G A78G U87C U127A,0.43
24,A63G C105G A111G,0.03

row,Variant,self-cleavage
1,U19C A60G A89G U122C,1.15
2,U39C A67G G115U A140G,0.18
3,A36G U37C U43A U49C A68G U103C,0.8
4,A11C A116G U124C,0.37
5,A68G U100C A126U U139A,2.45
6,A52G A98G U130C U133C,0.18
7,C16U U103C A134G G138A,1
8,A33G A66U A67G,0.39
9,U26C A52G A116G,0.36
10,U12C A63G A64G,1.22
11,A5G U37C A62G A111G,0.09
12,A23G A91G U130C,0.63
13,A5C A24G A33U A51G A126G U127C,0.5
14,U37C A55G A69G,1.42
15,G15A C45U A118G U124A,0.58
16,A18U U108C U122C,0.01
17,U19C U72C A98U,0.17
18,U26A U37C A118G,1.63
19,A60G A129G U131C U133G,0.48
20,A18U C25U G31A A78G C107A U122C,0.02
21,U39A A116G U127C A135G,0.34
22,A22G A52G A60G A92G,0.72
23,U49C A68U U70C,0.42
24,A5G U37C A62G G80U C88U,0.12

row,Variant,self-cleavage
1,A33G U38C A52G A134G,0.97
2,A59G A60G U102C,1.62
3,A60G A64G A68U A94U C105U,0.22
4,A86U A116C U122A,0.06
5,U12C C17U A36U,1.48
6,A23G U38C A69U A140G,1.02
7,A47U A51G A140G,0.54
8,A23G A54G A96G U130C,0
9,U37C A68G A78G,0.16
10,A67G A110G U127C,0.09
11,A22G G29U A47G A54G A60G U132C,0.61
12,U12A A13G A47G A52G A125U A126G,0.16
13,A63G A68G A82G U87C U131C,0.2
14,A18U A47G A56G A59G,1.32
15,A11G A23G G50U A55G A98G U124C,0.23
16,A30G A92G A118G,0.46
17,A22G A66G U108C,0.02
18,U12A A67G U87C A92G U122C U131C,0.54
19,G58A A111G U132C,0.02
20,U19A A52G A66G A96G A111G,0.12
21,A30G C35U A62G A66U A140G,0.94
22,U122C A126U A135U,0.36
23,A11G U43C C46U A89G A117C,0.17
24,U39C A52G A67G U102A A140U,1.23

row,Variant,self-cleavage
1,A68G A114G A126G,0.37
2,U9C A51G A92G U100C,2.01
3,C34U A118G A135G,0.97
4,U39C A63G U132C,1.73
5,A55G A78G A114G,0.01
6,A52G A62U A92G A118U,1.24
7,A30G A78U G106U A126G,0.01
8,U2A U9A C40A A47G A51G A52U,1.12
9,U39C U43A A51G A64U,1.72
10,A24G A47G A69G,0.98
11,A5U A33C U122C A140G,1.88
12,U70C A82U U102C,0.39
13,A23G U72G G106A,0
14,A59G A82G U100A,0.1
15,A51U U57C A62G,0.4
16,A67G A96G A116G,0.18
17,A5G U12C A23G A52G A66G U87C,1.24
18,A22G A64G A91G A118U U120A A126G U127C,0.34
19,C6A U19C A63U,0
20,G15U A92G A126U,0.6
21,A5G A66G A135C,1.32
22,A54G A67G A96U A110U U122C,1.14
23,A64G C105G A116U,0
24,U39C A67U A82U U131C U132A,0.11

row,Variant,self-cleavage
1,A22G U87C C101U A111U,0.06
2,U19C A52G U97C,1.86
3,A5G A27G A94G,1.61
4,U37A A90U A98C G99A,0.93
5,A33U A51U A56G A86G A96G U108C,0.01
6,A4G A82G U108A,0.13
7,A33G G58U A90G,0.25
8,A18G A82U A94U U122A,0.12
9,A30U U37C A51G,1.85
10,A36C C40A A47G U127C,0.95
11,U9C U43A A129G,2.05
12,U43A A52G U127A,2.1
13,A52G A59G A96G,1.9
14,U70C A110U A117G,1.6
15,U2C U72C A111G,0.05
16,G65A A110U U133C A135G,1.12
17,U19C A52G A118G,1.13
18,U87C A117G U122A,1.09
19,U38C A63G A86U,2.44
20,U19C A30G A129G,0.53
21,U43G A64G A117G U130A U131G,2.85
22,A22G U49A U97C A110G,0.14
23,U9C G14A A52G A110G A117G,0.08
